# Assay results as given in the supplement of paper PMC8728848.
# The other results are listed elsewhere or left out.
# B1: Strep tagII-anxA1 (Homo sapiens), P04083 (protein)
# chain: MAMVSEFLKQAWFIENEEQEYVQTVKSSKGGPGSAVSPYPTFNPSSDVAALHKAIMVKGVDEATIIDILTKRNNAQRQQIKAAYLQETGKPLDETLKKALTGHLEEVVLALLKTPAQFDADELRAAMKGLGTDEDTLIEILASRTNKEIRDINRVYREELKRDLAKDITSDTSGDFRNALLSLAKGDRSEDFGVNEDLADSDARALYEAGERRKGTDVNVFNTILTTRSYPQLRRVFQKYTKYSKHDMNKVLDLELKGDIEKCLTAIVKCATSKPAFFAEKLHQAMKGVGTRHKALIRIMVSRSEIDMNDIKAFYQKMYGISLCQAILDETKGDYEKILVALCGGN
# Tests used:
# Test in all cases: glycan array binding signal (z-score within array); higher = stronger binding
# Settings in all cases: glycan notation: IUPAC condensed, linker removed
# [1] = molecular target: Fuc(a1-2)Gal
# Summary of the method: (§1)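 Negative Z-scores can be read as non-binding. The Z-score is calculated within each array and then averaged across arrays of one protein sequence at different concentrations or buffers and across linkers. Arrays, 3228 in all, were curated from the Consortium for Functional Glycomics database and kept only where the protein sequence was available.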
# [2] = molecular target: Fuc(a1-2)Gal(b1-3)GalNAc
# Summary of the method: as §1
# [3] = molecular target: Fuc(a1-2)Gal(b1-3)GalNAc(a1-3)[Fuc(a1-2)]Gal(b1-4)Glc
# Summary of the method: as §1
# [4] = molecular target: Fuc(a1-2)Gal(b1-3)GalNAc(a1-3)[Fuc(a1-2)]Gal(b1-4)GlcNAc
# Summary of the method: as §1
# [5] = molecular target: Fuc(a1-2)Gal(b1-3)GalNAc(b1-3)Gal
# Summary of the method: as §1
# [6] = molecular target: Fuc(a1-2)Gal(b1-3)GalNAc(b1-3)Gal(a1-4)Gal(b1-4)Glc
# Summary of the method: as §1
# [7] = molecular target: Fuc(a1-2)Gal(b1-3)GalNAc(b1-4)[Neu5Ac(a2-3)]Gal(b1-4)Glc
# Summary of the method: as §1
# [8] = molecular target: Fuc(a1-2)Gal(b1-3)GlcNAc
# Summary of the method: as §1
# [9] = molecular target: Fuc(a1-2)Gal(b1-3)GlcNAc(b1-2)Man(a1-3)[Fuc(a1-2)Gal(b1-3)GlcNAc(b1-2)Man(a1-6)]Man(b1-4)GlcNAc(b1-4)GlcNAc
# Summary of the method: as §1
# [10] = molecular target: Fuc(a1-2)Gal(b1-3)GlcNAc(b1-2)Man(a1-3)[Fuc(a1-2)Gal(b1-3)GlcNAc(b1-2)Man(a1-6)]Man(b1-4)GlcNAc(b1-4)[Fuc(a1-6)]GlcNAc
# Summary of the method: as §1
# [11] = molecular target: Fuc(a1-2)Gal(b1-3)GlcNAc(b1-3)Gal(b1-4)Glc
# Summary of the method: as §1
# [12] = molecular target: Fuc(a1-2)Gal(b1-3)GlcNAc(b1-3)GalNAc
# Summary of the method: as §1
# [13] = molecular target: Fuc(a1-2)Gal(b1-3)GlcNAc(b1-3)[Fuc(a1-2)Gal(b1-3)GlcNAc(b1-6)]GalNAc
# Summary of the method: as §1
# [14] = molecular target: Fuc(a1-2)Gal(b1-3)GlcNAc(b1-3)[Fuc(a1-3)[Gal(b1-4)]GlcNAc(b1-6)]Gal(b1-4)Glc
# Summary of the method: as §1
# [15] = molecular target: Fuc(a1-2)Gal(b1-3)GlcNAc(b1-3)[Gal(b1-4)GlcNAc(b1-6)]Gal(b1-4)Glc
# Summary of the method: as §1
# [16] = molecular target: Fuc(a1-2)Gal(b1-3)GlcNAc(b1-3)[Neu5Ac(a2-6)Gal(b1-4)GlcNAc(b1-6)]Gal(b1-4)Glc
# Summary of the method: as §1
# [17] = molecular target: Fuc(a1-2)Gal(b1-3)GlcNAc6S
# Summary of the method: as §1
# [18] = molecular target: Fuc(a1-2)Gal(b1-3)[Fuc(a1-4)]GlcNAc
# Summary of the method: as §1
# [19] = molecular target: Fuc(a1-2)Gal(b1-3)[Fuc(a1-4)]GlcNAc(b1-2)Man(a1-3)[Fuc(a1-2)Gal(b1-3)[Fuc(a1-4)]GlcNAc(b1-2)Man(a1-6)]Man(b1-4)GlcNAc(b1-4)GlcNAc
# Summary of the method: as §1
# [20] = molecular target: Fuc(a1-2)Gal(b1-3)[Fuc(a1-4)]GlcNAc(b1-2)Man(a1-6)[Fuc(a1-2)Gal(b1-3)[Fuc(a1-4)]GlcNAc(b1-2)Man(a1-3)]Man(b1-4)GlcNAc(b1-4)[Fuc(a1-6)]GlcNAc
# Summary of the method: as §1
# [21] = molecular target: Fuc(a1-2)Gal(b1-3)[Fuc(a1-4)]GlcNAc(b1-3)[Fuc(a1-3)[Gal(b1-4)]GlcNAc(b1-6)]Gal(b1-4)Glc
# Summary of the method: as §1
# [22] = molecular target: Fuc(a1-2)Gal(b1-3)[Fuc(a1-4)]GlcNAc(b1-3)[Gal(b1-4)GlcNAc(b1-6)]Gal(b1-4)Glc
# Summary of the method: as §1
# [23] = molecular target: Fuc(a1-2)Gal(b1-4)Glc
# Summary of the method: as §1
# [24] = molecular target: Fuc(a1-2)Gal(b1-4)Glc6S
# Summary of the method: as §1
# [25] = molecular target: Fuc(a1-2)Gal(b1-4)GlcNAc
# Summary of the method: as §1
# [26] = molecular target: Fuc(a1-2)Gal(b1-4)GlcNAc(b1-2)Man
# Summary of the method: as §1
# [27] = molecular target: Fuc(a1-2)Gal(b1-4)GlcNAc(b1-2)Man(a1-3)[Fuc(a1-2)Gal(b1-4)GlcNAc(b1-2)Man(a1-6)]Man(b1-4)GlcNAc(b1-4)GlcNAc
# Summary of the method: as §1
# [28] = molecular target: Fuc(a1-2)Gal(b1-4)GlcNAc(b1-2)Man(a1-3)[Fuc(a1-2)Gal(b1-4)GlcNAc(b1-2)Man(a1-6)]Man(b1-4)GlcNAc(b1-4)[Fuc(a1-6)]GlcNAc
# Summary of the method: as §1
# [29] = molecular target: Fuc(a1-2)Gal(b1-4)GlcNAc(b1-2)[Fuc(a1-2)Gal(b1-4)GlcNAc(b1-4)]Man(a1-3)[Fuc(a1-2)Gal(b1-4)GlcNAc(b1-2)Man(a1-6)]Man(b1-4)GlcNAc(b1-4)GlcNAc
# Summary of the method: as §1
# [30] = molecular target: Fuc(a1-2)Gal(b1-4)GlcNAc(b1-3)Gal(b1-4)GlcNAc
# Summary of the method: as §1
# [31] = molecular target: Fuc(a1-2)Gal(b1-4)GlcNAc(b1-3)Gal(b1-4)GlcNAc(b1-3)Gal(b1-4)GlcNAc
# Summary of the method: as §1
# [32] = molecular target: Fuc(a1-2)Gal(b1-4)GlcNAc(b1-3)GalNAc
# Summary of the method: as §1
# [33] = molecular target: Fuc(a1-2)Gal(b1-4)GlcNAc(b1-3)[Fuc(a1-2)Gal(b1-4)GlcNAc(b1-6)]GalNAc
# Summary of the method: as §1
# [34] = molecular target: Fuc(a1-2)Gal(b1-4)GlcNAc(b1-6)GalNAc
# Summary of the method: as §1
# [35] = molecular target: Fuc(a1-2)Gal(b1-4)GlcNAc6S
# Summary of the method: as §1
# [36] = molecular target: Fuc(a1-2)Gal(b1-4)[Fuc(a1-3)]GlcNAc
# Summary of the method: as §1
# [37] = molecular target: Fuc(a1-2)Gal(b1-4)[Fuc(a1-3)]GlcNAc(b1-2)Man(a1-3)[Fuc(a1-2)Gal(b1-4)[Fuc(a1-3)]GlcNAc(b1-2)Man(a1-6)]Man(b1-4)GlcNAc(b1-4)GlcNAc
# Summary of the method: as §1
binder,measurement,setting,value
B1,glycan array binding signal (z-score),[1],-0.378
same,glycan array binding signal (z-score),[2],0.017
same,glycan array binding signal (z-score),[3],-0.705
same,glycan array binding signal (z-score),[4],-0.617
same,glycan array binding signal (z-score),[5],-0.541
same,glycan array binding signal (z-score),[6],-0.384
same,glycan array binding signal (z-score),[7],-0.694
same,glycan array binding signal (z-score),[8],-0.573
same,glycan array binding signal (z-score),[9],1.89
same,glycan array binding signal (z-score),[10],0.314
same,glycan array binding signal (z-score),[11],-0.573
same,glycan array binding signal (z-score),[12],-0.698
same,glycan array binding signal (z-score),[13],0.189
same,glycan array binding signal (z-score),[14],-0.635
same,glycan array binding signal (z-score),[15],-0.733
same,glycan array binding signal (z-score),[16],1.32
same,glycan array binding signal (z-score),[17],-0.034
same,glycan array binding signal (z-score),[18],5.05
same,glycan array binding signal (z-score),[19],10.7
same,glycan array binding signal (z-score),[20],3.12
same,glycan array binding signal (z-score),[21],-0.552
same,glycan array binding signal (z-score),[22],0.508
same,glycan array binding signal (z-score),[23],-0.086
same,glycan array binding signal (z-score),[24],0.094
same,glycan array binding signal (z-score),[25],-0.474
same,glycan array binding signal (z-score),[26],1.62
same,glycan array binding signal (z-score),[27],1.03
same,glycan array binding signal (z-score),[28],1.07
same,glycan array binding signal (z-score),[29],1.64
same,glycan array binding signal (z-score),[30],-0.18
same,glycan array binding signal (z-score),[31],-0.744
same,glycan array binding signal (z-score),[32],0.297
same,glycan array binding signal (z-score),[33],2.61
same,glycan array binding signal (z-score),[34],1.01
same,glycan array binding signal (z-score),[35],-0.035
same,glycan array binding signal (z-score),[36],-0.35
same,glycan array binding signal (z-score),[37],1.91
